“And” between values parts separate entries of the source, which are not always exact repeats. Equal entries are not always repeated. Screen size: about 420,000 compounds; about 50,000 (12%) were called active. This list was built around the results that the source calls inconclusive (neither active nor inactive); the mix of calls is not that of the screen. The call rests on the fitted dose curve; in most records, active means well fitted inhibition curve with a large enough effect; inconclusive means small, poorly fitted or top-dose-only effect; inactive means flat fitted curve, though single readings scatter. Potencies beside an inconclusive call are fits to weak or partial responses and may not hold up.
Experiment: qHTS for Inhibitors of human tyrosyl-DNA phosphodiesterase 1 (TDP1): qHTS in cells in presence of CPT; further: nearly all actives have a fitted effect of over 55% in size
Conditions: chicken DT40 Tdp1-/-;hTDP1 cells + 20 nM CPT, ATP luminescence, 48 h; activity change, negative = growth inhibition: at 46.2 µM (top of the series)
How it was run: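 Cell growth measured by CellTiter-Glo luminescence after a minimum 48 h, 37 C compound exposure with 20 nM CPT in Tdp1-knockout DT40 cells stably expressing hTDP1, seeded 400/well; qHTS titration format.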
On the % scale 0 is the no-effect control and ±100 the full control effect; potency means the concentration at half of the fitted maximal effect; tags describe the fitted curve by direction and shape.

Row | Structure (SMILES) | activity change, negative = growth inhibition | Potency
1 | OCC1(CC2CCCCO2)CCN(Cc2ccccc2-c2ccco2)CC1 (stereo not given) | inactive: 19.2% | 
2 | Cc1ccc(SCCNC(=O)c2ccccc2)cc1 | inactive: -1.09% | 
3 | CC(C)C(C)(C#N)NC(=O)COC(=O)C1CCN(S(=O)(=O)c2ccc3c(c2)OCCO3)CC1 (stereo not given) | inactive: 2.25% | 
4 | CC(=O)Nc1ccc2nc(NC(=O)c3ccco3)sc2c1 |  | inconclusive: 25.9 µM [inhibitor, single point]
5 | O=C(NNC(=O)c1ccc([N+](=O)[O-])o1)c1ccccc1 |  | inconclusive: 20.6 µM [inhibitor, single point]
6 | O=C(Nc1ccc(N2CCC(N3CCCCC3)CC2)c(C(=O)O)c1)c1ccc(Br)cc1 | inactive: -18.7% | 
7 | CCOc1ccccc1Nc1nc2ccccc2[nH]1 | inconclusive: -30.4% [inhibitor] | 
8 | CCOc1cc(C2C(C(=O)OC)=C(C)NC3=C2C(=O)c2ccccc23)ccc1O (stereo not given) |  | inconclusive: 25.9 µM [inhibitor, single point]
9 | O=C(Nc1ccncc1)c1ccccc1[N+](=O)[O-] | inactive: -26.9% | 
10 | CCc1ccc(-c2nn(CC(=O)NC3CCCC3)c3c2cnc2ccc(C)cc23)cc1 | inactive: -18.9% | 
11 | Cc1c(C(=S)Nc2ccccc2)cnn1-c1ccccc1 |  | active: 20.6 µM
12 | Cc1ccc(C2CN(c3ccccc3)CC2C(=O)c2ccc(F)cc2)cc1 (stereo not given) | inconclusive: -31.9% [inhibitor] | 
13 | CN(Cc1ccc(Cl)cc1)C(C(=O)NC1CCCCC1)c1ccnc2ccccc12 (stereo not given) |  | inconclusive: 25.9 µM [inhibitor, single point]
14 | COc1ccc(-n2nc3ccc(NC(=O)c4cc5ccccc5o4)cc3n2)cc1Cl |  | inconclusive: 18.4 µM [inhibitor, single point]
15 | CCOc1ccc(CNC(=O)C2CCCN(c3nc4c(C)cc(C)cc4s3)C2)cc1 (stereo not given) |  | active: 18.4 µM
16 | COc1ccc2oc(=O)cc(CN(C)Cc3ccccc3)c2c1 |  | inconclusive: 13 µM [inhibitor, single point]
17 | CCOc1cccc(CN2CCC(CCC(=O)NC3CC3)CC2)c1O | inactive: -10.2% | 
18 | CCN1CCN(c2cc(C)c3cc(NC(=S)NCc4cccs4)ccc3n2)CC1 |  | inconclusive: 23.1 µM [inhibitor, single point]
19 | O=C(NC1CCCCC1)C1CCC(CNS(=O)(=O)c2ccccc2)CC1 (stereo not given) | inactive: -11% | 
20 | CCC(CC)C(=O)Nc1cccc(-c2nc3cccnc3s2)c1C |  | inconclusive: 25.9 µM [inhibitor, single point]
21 | COC(=O)c1ccc(OCC(O)CN(CC(C)C)CC(C)C)cc1 (stereo not given) |  | inconclusive: 29.1 µM [inhibitor, single point]
22 | Cc1nn(-c2ccccc2)c(Cl)c1/C=C1\SC(=S)NC1=O |  | inconclusive: 10.3 µM [inhibitor, partial curve]
23 | COc1ccc(CCN2C(=O)C3C4CCC(C4=C(C)C)C3C2=O)cc1OC (stereo not given) |  | inconclusive: 16.4 µM [inhibitor, partial curve]
24 | C/C(CC(=O)NCc1ccco1)=N\NC(=O)c1ccc(Cl)cc1Cl | inactive: 13.6% | 
25 | Cc1cccc(/C=C/c2onc(C)c2S(=O)(=O)N2CCC(C(=O)N3CCC(C)CC3)CC2)c1 |  | active: 18.4 µM

Row | Structure (SMILES) | activity change, negative = growth inhibition | Potency
26 | COc1cccc(-c2oc3ccccc3c(=O)c2O)c1 |  | active: 26.6 µM
27 | Cc1cc2nc(-c3ccc(SCC(=O)Nc4nccs4)nc3)[nH]c2cc1C |  | active: 16.4 µM
28 | FC(F)(F)c1ccccc1-n1ccnc1 |  | inactive and inconclusive: 29.1 µM [inhibitor, single point]
29 | COc1ccc(N2C(=O)C(=O)/C(=C(/O)c3ccc(C)cc3)C2c2cccnc2)cc1 (stereo not given) | inactive: 9.55% | 
30 | CCCCNC(=O)CCCN1C(=O)c2cccnc2Sc2ccccc21 | inactive: 0.0652% | 
31 | Cc1csc(SCC(=O)Nc2ccc(CC#N)cc2)n1 | inactive: -26.5% | 
32 | O=C(O)c1cccc(Cn2c(Cl)c(/C=N/Nc3ccccc3)sc2=O)c1 |  | inconclusive: 20.6 µM [inhibitor, single point]
33 | COc1cc2c(cc1OC)C(c1ccccc1)NC(C)(C)C2 (stereo not given) | inactive: -4.33% | 
34 | O=C(c1ccc(N2CCCC2)c([N+](=O)[O-])c1)N1CCc2ccccc2C1 |  | active: 16.4 µM
35 | CCc1[nH]nc(C(=O)NC2CCCN(Cc3ccccc3F)C2)c1C (stereo not given) | inactive: -22.4% | 
36 | CCc1ccccc1NC(=O)CN(c1ccc(OC)cc1OC)S(=O)(=O)c1ccccc1[N+](=O)[O-] |  | inconclusive: 25.9 µM [inhibitor, single point]
37 | Cc1cccc(C)c1NC(=O)Cn1nnc(-c2ccc(CN3CCC(C)CC3)cc2)n1 | inactive: -0.922% | 
38 | COC(=O)C1=C(C)N(Cc2ccccc2)C(=NCCCCO)N[C@H]1c1cccc(C(F)(F)F)c1 |  | active: 23.1 µM
39 | Cc1ccc(C)c(NC(=O)CN(C)C(=O)Cn2c(=O)oc3ccccc32)c1 | inactive: 3.18% | 
40 | CCOC(=O)C1=C(C)Nc2ncnn2C1c1cc(Br)ccc1F (stereo not given) |  | inconclusive: 25.9 µM [inhibitor, single point]
41 | Cc1ccc(CN2C(=O)c3ccccc3C2C(=O)NC2CCCCCC2)cc1 (stereo not given) | inactive: -13.7% | 
42 | CCNC(=O)/C(C#N)=C/c1c(N2CCN(c3ccccc3)CC2)nc2c(C)cccn2c1=O |  | inconclusive: 23.1 µM [inhibitor, single point]
43 | COc1ccc(NC(=O)c2ccco2)cc1N |  | inconclusive: 11.6 µM [inhibitor, partial curve]
44 | COc1ccc(N2c3ccccc3CN(Cc3ccccc3)[C@@H](C)[C@H]2Cc2c(C)cccc2C)cc1 |  | active: 18.4 µM
45 | CCc1nc2ccc(C(=O)NC3CCN(C)CC3)cn2c1N(C)CCC(C)C |  | inconclusive: 29.1 µM [inhibitor, single point]
46 | O=C(C1CCN(S(=O)(=O)c2ccccc2)CC1)N1CCN(Cc2ccccc2)CC1 |  | inconclusive: 0.651 µM [inhibitor, full curve, poor fit]
47 | COC(=O)C(CC(=O)c1ccc(Cl)cc1)c1ccccc1 (stereo not given) |  | inconclusive: 0.461 µM [inhibitor, full curve, poor fit]
48 | CCOC(=O)C(C)Oc1ccc2c(CC)cc(=O)oc2c1C (stereo not given) | inactive: 6.43% | 
49 | Cc1ccc(NC(=O)c2sc3ccccc3c2Cl)cc1 | inactive: -22.8% | 
50 | O=C(NCc1ccco1)c1cc(-c2ccco2)on1 |  | active: 23.1 µM

Row | Structure (SMILES) | activity change, negative = growth inhibition | Potency
51 | CCOC(=O)c1sc2ncnc(N3CCN(C)CC3)c2c1C |  | inconclusive: 3.26 µM [inhibitor, single point]
52 | COc1ccc(CCNC(=O)Cn2nc(C)n3nc(-c4ccccc4)cc3c2=O)cc1OC |  | inconclusive: 32.6 µM [inhibitor, single point]
53 | Cn1cc(CN2CCOc3ccc(C(O)C4CCCCC4)cc3C2)cn1 (stereo not given) |  | inconclusive: 25.9 µM [inhibitor, single point]
54 | O=C(Cc1ccc([N+](=O)[O-])cc1)Nc1cccc(C(F)(F)F)c1 |  | inconclusive: 20.6 µM [inhibitor, single point]
55 | Cc1cc(Nc2cccc(C(F)(F)F)c2)nc2ccc(NC(=O)c3ccc(N(C)C)cc3)cc12 |  | active: 5.17 µM
56 | O=C(Nc1cccc(C(=O)N2CCCCC2)c1)c1nsc2ccccc12 |  | inconclusive: 18.4 µM [inhibitor, single point]
57 | COCCNC(=O)[C@H]1C[C@@H]1[C@H](NP(=O)(c1ccccc1)c1ccccc1)c1ccccc1 |  | inconclusive: 29.1 µM [inhibitor, single point]
58 | COc1ccc2oc(C(=O)N3CCCc4ccccc43)c(C)c2c1 |  | inconclusive: 29.1 µM [inhibitor, single point]
59 | Cc1cc(O)c(C(c2ccc(F)cc2)N2CCCCC2)c(=O)n1Cc1ccco1 (stereo not given) | inactive: -9.31% | 
60 | Cn1c(-c2ccc([N+](=O)[O-])cc2)nc2ccccc21 | inactive: 11.9% | 
61 | CC(=O)Nc1ccc(-c2ccnc3c2CC(C(=O)Nc2ccc(C(C)C)cc2)O3)cc1 (stereo not given) |  | inconclusive: 20.6 µM [inhibitor, single point]
62 | COc1ccc(NS(=O)(=O)c2cccc(C(=O)NNC(=O)CN3C(=O)NC(C)(C)C3=O)c2)cc1 | inactive: -7.99% | 
63 | COCCNC(=O)C1(C)CCN(Cc2noc(-c3c(C)noc3C)n2)C1 (stereo not given) | inactive: 0.314% | 
64 | CCCn1c(SCC(=O)Nc2ccccc2N2CCOCC2)nc2c1c(=O)n(C)c(=O)n2C |  | inconclusive: 20.6 µM [inhibitor, single point]
65 | O=[N+]([O-])c1ccc(S(=O)(=O)N2CCN(c3ccnc4cc(Cl)ccc34)CC2)cc1 |  | active: 18.4 µM
66 | Cc1ccc(CN(Cc2cccnc2)C(=S)Nc2cc(Cl)ccc2C)cc1 |  | active: 13 µM
67 | Cn1nccc1C(=O)NCC1CCC2(CCN(Cc3ccc(-c4ccc(Cl)cc4)o3)CC2)O1 (stereo not given) |  | inconclusive: 18.4 µM [inhibitor, single point]
68 | Clc1ccc2c(c1)C1OCCC1C(c1ccco1)N2 (stereo not given) |  | inconclusive: 16.4 µM [inhibitor, partial curve, poor fit]
69 | O=C(Nc1ccc(Cl)cc1)c1ccc(CN2CCc3ccccc3C2)cc1 |  | inconclusive: 11.6 µM [inhibitor, partial curve]
70 | COC(=O)C1=CN(c2ccc3c(c2)OCO3)C(N)=C(C#N)C1c1ccc(-c2ccccc2)cc1 (stereo not given) |  | active: 5.8 µM
71 | O=C(NCCc1ccccc1)c1ccc2c(=O)[nH]c3c(C(=O)NCC4CCCO4)sc(=S)n3c2c1 (stereo not given) |  | inconclusive: 29.1 µM [inhibitor, single point]
72 | Cc1cccc(C)c1Nc1c(-c2ccsc2)nc2ccccn12 |  | active: 7.31 µM
73 | O=C(CN1CCN(c2ccc(Cl)cc2)CC1)Nc1ccc(F)cc1F |  | inconclusive: 29.1 µM [inhibitor, single point]
74 | CN(C(=O)c1ccccc1F)C(c1ccccc1)c1ccccc1 |  | active: 10.3 µM
75 | O=C(Cc1cccs1)N[C@@H]1C(=O)N2C(C(=O)[O-])=C(C[n+]3ccccc3)CS[C@H]12 | inactive: -2.97% | 

— PubChem BioAssay AID686979 (National Center for Advancing Translational Sciences (NCATS), 2013)
